Results published in the supplement of paper PMC10126150.
Values marked as one replicate rest on one cluster of the flow cell; about a third of the high ones do not repeat.

Tested on: ATP
Test: switch fluorescence ratio, 500 uM ATP over buffer (Cy3 cluster intensity, sum of 5 cycles each) (fold (ratio)); higher = stronger signal-on switching upon ATP binding; sequences stand for … in TCGTCGGCAGCGTCAGATGTGTATAAGAGACAGTTTTTTTTTTTTTTTTTTTTTTTTT…TC
Conditions: aptamer strand: ATP DNA aptamer (quencher-CACCTGGGGGAGTATTGCGGAGGAAGG + anchor), 100 nM annealed; ATP concentration: 500 uM; one replicate
Procedure, shortened: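 The fluorescence ratio divides summed target-cycle Cy3 intensity by summed buffer-cycle Cy3 intensity for each cluster and is averaged per switch-domain sequence. Cy3-labelled switching-strand clusters on a modified Illumina MiSeq flow-cell were annealed to 100 nM quencher-labelled ATP aptamer, then imaged in selection buffer and again after 15 min with 500 uM ATP at 22 °C. Five such cycles were run, with NaOH stripping and re-annealing between them, and clusters outside 100-1000 RFU were excluded.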
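Note: ATP exposure 15 min at 22 °C before imaging.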

Sequence	switch fluorescence ratio
CTGGTGTATC	0.977
GAATATGTTA	0.99
GAGTCATTGG	1.03
ACGTTCGCCT	1.01
TACGATCGCT	1.32
CGTCATATTC	1.19
GTGTAGTGGT	1
TACATTGTGT	0.992
CTGTTGTTTC	1.01
TACGCGTCGA	1.04
TACCCTAGGC	1.1
AACGGGGACG	1.03
TAGCACCCTA	1.06
ATCTAAACAT	0.998
TTCGCTAAT	1.19
GGTAGGAATT	1.53
CGAATTCAAA	0.983
GGGTTACATT	1.02
AGTCCTATAT	1.01
GATGTCCGAA	1.01
GTTCATAGGT	0.977
ATAAGGGGCG	1.01
ATGACCAGTT	0.976
CATATAATAT	0.983
TACGGCGAAA	1.01

Sequence	switch fluorescence ratio
GTCCGACTTT	1.03
GATTGTGAGG	1
GTGTGGATCT	0.983
AAAGAATTTA	0.97
TTTGCCTCT	0.997
TGGGCAGCAA	1.33
TGCTGCTATG	1
CATTAGTGAG	0.938
CATTCCTGTA	0.994
GTGAGCCTGA	1
CTGCCGCATT	5.49
TGACCTTGGT	1.03
CAACAAGTTC	0.984
GCGAACCTCG	1.03
GGCCAAGTCT	1.01
GACCTTCAAA	1.01
CACGGGGATA	1.03
ACATCGCTAA	1.17
GGGCTATTGG	1.01
GAACGAGCTC	1.01
CAGGACGAAT	1.03
ACTATATTAT	1.04
TAGTCGATCG	0.993
CAGGAGGGTT	0.975
CAGGCCTACT	1.04

Sequence	switch fluorescence ratio
GGATGTCGCT	1.01
CTACGCGGAG	1.24
CAAGTTCTGA	1.01
TCCACTCGAC	1.18
TTCAGGGGA	1.04
TGCGTACA	0.993
TGAATTGTCT	0.979
GAATGCCAGC	1.03
GGAGAATAGA	1.03
AATTAGTGAC	1.07
ATACGGGTAA	0.963
CAGTCAGGCC	1.02
GATTGAGACA	1.04
AATCTGGTCT	0.994
TTTTGGGCCG	1.02
AACGCCATC	1.27
ACGACTGCA	2.3
CGAGATGGAA	0.995
CGCCATCGAT	1.05
AGAAGATCTT	1.07
AGAGGGTCGG	1.03
TCTGTGTCCC	1.03
CAAGCTATTT	1.06
AAACCGACTT	1.27
GGCAACGCTC	1.05

Sequence	switch fluorescence ratio
GGGATTATAG	1.03
CAATAAGGTT	0.975
TGCCTCGAAA	1.25
CTTTTCCGTA	1.04
GACATAGCAT	2.24
GCGCCCACGT	0.99
AGGTGAAAGG	0.985
TGCGCATAAG	1.06
TTAGAAGCGC	0.916
GCGCAGCACT	1.03
CCACACTGAA	1.03
ATGCAAGTCG	1.07
ATGACTGGGA	1.03
TGAGCGGTG	1.01
GCCTTAAACG	1.03
CCTTTCAGGC	1.07
CATATTGTTC	1.03
CCAGCCCGAC	1.43
TTATCCCCTT	0.996
GTGGCGTCCG	0.976
GCGATTGCGC	0.969
GTAAAAAGGG	0.981
GGGATGGCTC	0.976
CGGAAACTGA	1.02
TATATACTGC	1.03

Sequence	switch fluorescence ratio
CAAGTTCGGC	1.03
CCATCCAGAA	1.07
CTGGGTAATG	1.06
GGAGAAAGTA	0.974
TATACCGAT	1.01
AGTCTGAGCC	0.967
CACCAATCGA	1.01
AGTATGGGGC	1.02
TTTATAGTGA	1.02
TCCGTACAGT	1.09
TACACGTATA	1.25
CTCAATGATG	1.02
ATCGTTCAGT	0.976
TCTTGACCCA	0.998
CACCAATTCC	1.24
TTTGACGCTC	1.02
TGCCTTTATG	0.987
TACGGCGGC	0.992
CTCGGTCGCG	0.975
GAATTTTTGC	0.939
TCCACACAGG	2.65
GTGGAACTT	1.04
GGGGGTTGTC	1.14
CCGGTAAACC	1.06
AGGCTAAGGT	1.03

Sequence	switch fluorescence ratio
CGAAATTAAT	1.04
AGGTGACTTG	1.01
CATAACCGCC	1.63
AGTGTTCTTT	0.984
ATAGCCCCCG	1.02
GTGGGGCCTT	0.998
GTGGAGGTGC	1.14
CAGGGACTTT	0.947
TCACTGTCCC	1.01
CGACTTCGAT	1.04
AGAATCTTTA	1.05
TTCTTGAACA	1.02
AATCGGGGG	1.16
GTAGATGGGG	1.01
GGATGTGTCC	1.02
TCGTAGCACT	1.55
AAAACATCTT	1.03
AGGACTCCTC	1.02
CTTATGAACA	1.04
GGTTCGCT	1
ATGCGTCTGG	1.02
CTCTGGATGG	1.13
CACCCTAACG	1.18
GGGTCTCAAG	1.14
CTAATGTCCG	1.05

Sequence	switch fluorescence ratio
TTTCAAATGC	0.992
GTCCGCATCA	2.68
GCTGTTAAAA	0.962
TGCATCCGCC	1.7
AAGCTAATCA	0.99
TGAAATTAAT	0.98
GGGGTTTGAC	1
TGTAAAGTGG	1.04
CTAATGCCTA	1.02
ATGTCAGCCG	0.953
ATAGGGTCCT	1.04
ACGCCACGTA	1.18
TTCTACCAAA	1.09
GCCAGGGAGT	1.02
ATAGGAAGAA	0.999
GAATTACTGA	1.05
CGTATAAGCT	0.927
ATATGCTGCG	1.02
GTGCGAATCC	1.04
TCGGCCTAAG	1.01
AAAGGACTCC	1.06
AATCGGCCCA	1.39
GAAAGTCAGC	0.985
TTACACCGCA	1.67
CTGGGACCGC	1.06

Sequence	switch fluorescence ratio
AGAACCCGGG	0.988
CTAACTTCCG	1.27
CCATGTGGCT	0.984
TGCAACTAGA	1.01
ATCGCTTCGG	1.02
TGGAAAGAAT	0.967
TAGCCCGGTA	0.998
TAGATACTT	1.12
AGTGGAGAGG	1.05
TTGGCTAAGG	0.989
GGCCAGGGAT	1.07
CTCGTAGTCC	1.07
CCGAGTTTT	1.05
GGGAACAGAT	1.03
GGAAGGCATT	1.01
AAGCAGGAAC	1.14
TGGGCTGGTT	0.996
TAGTTAATCC	1.04
TGTAAGGCG	0.98
CAATATGGTT	1
CGGGCAGGAG	0.984
TCGGAACGAC	1.08
ACAGCTGGAA	1.05
AAACCGTATG	1.05
GCCACGTTTA	0.99
